# Some of the results follow. These are noisy estimates, calculated here from bound and input reads.
# Target: T1, Pho4 (S. cerevisiae) (UniProt P07270)
# T1 sequence: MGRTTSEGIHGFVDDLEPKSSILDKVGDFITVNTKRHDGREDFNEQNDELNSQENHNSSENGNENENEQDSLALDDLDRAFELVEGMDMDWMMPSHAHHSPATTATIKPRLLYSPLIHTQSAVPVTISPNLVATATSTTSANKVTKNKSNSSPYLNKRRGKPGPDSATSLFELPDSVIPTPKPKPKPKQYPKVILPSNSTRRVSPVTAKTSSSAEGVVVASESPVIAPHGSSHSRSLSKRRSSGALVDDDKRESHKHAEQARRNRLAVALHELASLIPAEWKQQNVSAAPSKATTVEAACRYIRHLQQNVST
# Assay: relative binding free energy (BET-seq); higher = weaker binding
# Details: reference: library average
row,Sequence,relative binding free energy
1,AGGCTCACGTGAGATG,0.34 kcal/mol
2,CCAGGCACGTGGGGTT,-0.36 kcal/mol
3,TAAAACACGTGGAGGT,0.05 kcal/mol
4,GACTTCACGTGGGTTT,0.24 kcal/mol
5,CAGTGCACGTGCAGGT,-0.14 kcal/mol
6,AAATGCACGTGTAGGG,-0.03 kcal/mol
7,AAGGTCACGTGGTTGT,0.11 kcal/mol
8,GTTGCCACGTGTTTGA,0.04 kcal/mol
9,TTTTTCACGTGACTCT,0.32 kcal/mol
10,GGCGACACGTGGTTCG,0.07 kcal/mol
11,TAAGGCACGTGTGAGT,-0.07 kcal/mol
12,TCTGTCACGTGGAGGA,0.15 kcal/mol
13,TATATCACGTGTAGGA,0.1 kcal/mol
14,GTCGGCACGTGGAGCG,-0.04 kcal/mol
15,CGGTACACGTGGATAG,0.2 kcal/mol
16,GGGCGCACGTGTCGTG,-0.13 kcal/mol
17,GATATCACGTGGTAGA,0.19 kcal/mol
18,TTTTGCACGTGAATAG,0.27 kcal/mol
19,CTGCACACGTGTGGTG,0.04 kcal/mol
20,CGAATCACGTGTAGTG,0.11 kcal/mol
21,GAGGTCACGTGGGGTT,0.07 kcal/mol
22,AGTATCACGTGAGGGT,0.35 kcal/mol
23,TGCAGCACGTGTATGG,0 kcal/mol

row,Sequence,relative binding free energy
1,GGTAACACGTGGTAGT,0.02 kcal/mol
2,GGCTACACGTGGGGGA,0.06 kcal/mol
3,ATATCCACGTGGTTTG,0.06 kcal/mol
4,CTAGGCACGTGTCGGG,-0.03 kcal/mol
5,TTTGTCACGTGTAGAA,0.12 kcal/mol
6,TATGCCACGTGTGTAT,-0.14 kcal/mol
7,TTTAGCACGTGAAGGA,0.15 kcal/mol
8,GGGTACACGTGGGACT,0.17 kcal/mol
9,TCTAGCACGTGTGGTC,0.11 kcal/mol
10,GTACACACGTGGTGGG,-0.1 kcal/mol
11,GTGTACACGTGGGCAT,-0.14 kcal/mol
12,TGGATCACGTGAATGG,0.4 kcal/mol
13,CTATGCACGTGTAGTG,-0.01 kcal/mol
14,TTGAGCACGTGAGGAA,0.01 kcal/mol
15,CTTTACACGTGTCGGG,0.18 kcal/mol
16,ATAAGCACGTGATTTG,0.07 kcal/mol
17,AGGCTCACGTGAGATT,0.53 kcal/mol
18,TCCATCACGTGGGTGT,0.06 kcal/mol
19,GTGGGCACGTGGCATT,-0.15 kcal/mol
20,GGGGTCACGTGGGAAT,0.2 kcal/mol
21,GGGTCCACGTGATTTA,0.22 kcal/mol
22,ACGGGCACGTGGAGCG,-0.23 kcal/mol
23,AGAGACACGTGGGTAT,-0.1 kcal/mol

row,Sequence,relative binding free energy
1,GGTGCCACGTGAGGAT,0.27 kcal/mol
2,TCTTGCACGTGAGGTG,0.12 kcal/mol
3,AGTCACACGTGTTGAA,0.18 kcal/mol
4,AGAAGCACGTGGTATG,-0.25 kcal/mol
5,GGAAGCACGTGTGGTA,-0.08 kcal/mol
6,GTAGACACGTGAGTGT,0.09 kcal/mol
7,AGCGACACGTGGGGCT,-0.09 kcal/mol
8,AGTATCACGTGTTGAC,0.25 kcal/mol
9,AGGGGCACGTGTCAGG,-0.12 kcal/mol
10,TGAGGCACGTGCGTAT,-0.16 kcal/mol
11,TGAAACACGTGGGGTG,-0.02 kcal/mol
12,GTTTGCACGTGAGTGG,0.18 kcal/mol
13,TCTTGCACGTGGAGGA,-0.05 kcal/mol
14,GAAGGCACGTGCAGGT,-0.05 kcal/mol
15,GCTGGCACGTGCGGGT,-0.1 kcal/mol
16,GTTATCACGTGGGTCC,0.02 kcal/mol
17,AGTTGCACGTGCTATT,-0.04 kcal/mol
18,CAGGTCACGTGTAGTT,0.19 kcal/mol
19,GATGGCACGTGGAATG,0.04 kcal/mol
20,GCGTGCACGTGGCATG,-0.1 kcal/mol
21,GTGTCCACGTGTGGGG,0.18 kcal/mol
22,GTCGACACGTGGAAGG,0.17 kcal/mol
23,TAGATCACGTGGTGAT,0.04 kcal/mol

row,Sequence,relative binding free energy
1,CGTAGCACGTGGGTGA,-0.25 kcal/mol
2,TTAAACACGTGTTATT,0.09 kcal/mol
3,GTGTTCACGTGCTATT,0.28 kcal/mol
4,AAGATCACGTGTATTT,0.19 kcal/mol
5,GTGAGCACGTGGTGGC,-0.13 kcal/mol
6,GGGTGCACGTGATTTA,0.2 kcal/mol
7,AGTCTCACGTGAAGGA,0.35 kcal/mol
8,GTGAACACGTGTCGTG,0.07 kcal/mol
9,GAGCGCACGTGAGGGC,0.32 kcal/mol
10,AGCATCACGTGTGTAT,0.17 kcal/mol
11,TATGGCACGTGCGTAG,-0.22 kcal/mol
12,GTGTGCACGTGCGGGG,-0.02 kcal/mol
13,TTTGTCACGTGGCGCC,0.27 kcal/mol
14,ATGGTCACGTGATTGC,0.19 kcal/mol
15,TAAATCACGTGGTATT,0.11 kcal/mol
16,AAATGCACGTGAGGCT,0.31 kcal/mol
17,GCGAGCACGTGTGGTA,0.01 kcal/mol
18,GTTGACACGTGGGACG,-0.03 kcal/mol
19,CAGAGCACGTGGGTCG,-0.08 kcal/mol
20,TGTCGCACGTGGCGGT,-0.21 kcal/mol
21,AAGTACACGTGTTTGG,0.11 kcal/mol
22,TATATCACGTGGAAGG,0.28 kcal/mol
23,AATGACACGTGGAGTT,-0.01 kcal/mol

row,Sequence,relative binding free energy
1,GTTTGCACGTGGGGAC,-0.23 kcal/mol
2,GGTATCACGTGTTAGC,0.11 kcal/mol
3,TGCGGCACGTGCTGTT,-0.22 kcal/mol
4,AAGTGCACGTGAGATT,0.14 kcal/mol
5,ATATTCACGTGGAATA,0.25 kcal/mol
6,ATCGTCACGTGCAGTG,0.21 kcal/mol
7,GCGTGCACGTGTTTTT,0.08 kcal/mol
8,GGTTCCACGTGGAAGT,0.2 kcal/mol
9,AATTACACGTGGGAGT,0.07 kcal/mol
10,GTGATCACGTGAGCGT,0.24 kcal/mol
11,CGCGGCACGTGGTGCG,-0.23 kcal/mol
12,ATGGTCACGTGCATAT,0.03 kcal/mol
13,GGGCGCACGTGGGGCT,-0.18 kcal/mol
14,ATTGGCACGTGAGTTT,0.06 kcal/mol
15,TTCTGCACGTGGGATT,-0.16 kcal/mol
16,CTGATCACGTGCGTGT,0.08 kcal/mol
17,GTCGTCACGTGATAGG,0.21 kcal/mol
18,TTGTTCACGTGCACTT,0.16 kcal/mol
19,ATCAGCACGTGTGGGC,0.1 kcal/mol
20,AAGGGCACGTGGACAG,-0.1 kcal/mol
21,TGTATCACGTGACTGG,0.34 kcal/mol
22,GGTCCCACGTGGGTGT,-0.24 kcal/mol
23,GTCTGCACGTGGATGG,0.02 kcal/mol

# Reference: the BET-seq Pho4 binding data (Le et al. 2018)
